Tested on: HCT116 cells
Assay: Antibody internalization, FabFluor-pH Red labeling, Incucyte live cell imaging
Type: cell-based, human
Details: labeled antibody 2 μg/mL, imaged for 10 hours, Example 2, FIG. 10
Procedure: Antibody internalization in HCT116 cells was measured using the FabFluor-pH Red Antibody Labeling Reagent (Sartorius, Gottingen, Germany) according to the manufacturer's instructions. […] HCT116 cells were seeded at a density of 10,000 cells/well in a 96-well culture plate and allowed to adhere overnight. The control IgG, K101.1, or trastuzumab (MedChemExpress, Princeton, NJ, USA) were individually labeled with the human FabFluor-pH Red antibody labeling reagent at a 1:3 molar ratio in PBS and incubated for 15 minutes. The labeled antibodies were added to the cell culture medium at a final concentration of 2 μg/ml. The plate was transferred to the Incucyte SX1 live cell analysis system (Sartorius) and images were captured with a 10× objective lens for 12 hours. The fluorescence intensity was individually measured for each image.
The internalization of antibodies in HCT116 cells was measured using the FabFluor-pH Red antibody labeling reagent (Sartorius, Göttingen, Germany) according to the manufacturer's instructions. […] However, after internalization of the reagent-labeled antibody, the fluorescence intensity increases under the acidic conditions inside endosomes and lysosomes. HCT116 cells were seeded at a density of 10,000 cells per well in a 96-well culture plate and allowed to attach overnight. […] Fluorescence intensity was then measured.

B1: K101.3: GRP94-specific IgG antibody, CDRs SEQ ID NO: 9-14, VH SEQ ID NO: 15, VL SEQ ID NO: 16 (antibody, V domains shown)
VH: EVQLLESGGGLVQPGGSLRLSCAASGFTFSGYAMSWVRQAPGKGLEWVSAISHGGSSKYYADSVKGRFTISRDNSKNTLYLQMNSLRAEDTAVYYCAKDLLSPLQSIGSYDDAMDVWGQGTLVTVSS
VL: QSVLTQPPSASGTPGQRVTISCSGSSSNIGSNTVSWYQQLPGTAPKLLIYADNNRPSGVPDRFSGSKSGTSASLAISGLRSEDEADYYCASWDDSLNAYVFGGGTKLTVL
B1 was tested. Which “antibody internalization (FabFluor fluorescence intensity)” value did it give?
The value was “exhibited stronger internalization than trastuzumab”.
